Experimental data from paper PMC10367076, “Mechanistic and Structural Insights into a Divergent PLP-Dependent L-Enduracididine Cyclase from a Toxic Cyanobacterium” (ACS Catalysis, 2023).

Target: GntC (Sphaerospermopsis torques-reginae, UniProt A0ABX8WVP5)
Conditions: covalent; internal aldimine with K219

## Cc1ncc(COP(=O)(O)O)c(C=O)c1O [pyridoxal-5′-phosphate]
  X-ray crystal structure, 2.10 Å: we obtained crystal structures of GntC with bound PLP (PDB ID: 8FFT)
